Key:
[1] = test system: influenza virus A/Puerto Rico 8/34 strain; experiment: Food and water intake in mouse model of influenza infection (7-day administration); conditions: i.p. Day 1 to Day 7; KIS7 2.8 mg/kg/day, DCA 56 mg/kg/day; FIG. 7
[2] = test system: influenza virus A/Puerto Rico 8/34 strain; experiment: Biochemical parameters in peripheral blood, mouse model of influenza infection, Day 7; conditions: Day 7 after infection, FIG. 8; for blood glucose level / blood β-hydroxybutyric acid level: KIS7 2.8 mg/kg/day, DCA 56 mg/kg/day i.p.
[3] = test system: influenza virus A/Puerto Rico 8/34 strain; experiment: Body weight in mouse model of influenza infection (7-day administration); conditions: i.p. twice per day Day 1 to Day 7; KIS7 2.8 mg/kg/day, DCA 56 mg/kg/day; FIG. 6
[4] = test system: influenza virus A/Puerto Rico 8/34 strain; conditions: 14-day i.p. administration
[5] = test system: influenza virus A/Puerto Rico 8/34 strain; experiment: ATP level in mouse tissue, mouse model of influenza infection, Day 7; conditions: Day 7 after infection; KIS7 2.8 mg/kg/day i.p.; FIG. 9
[6] = KIS7 2.8 mg/kg/day, KIS24 1.3 mg/kg, KIS37 1.6 mg/kg

| Compound | change in amount of food intake after influenza infection [1] | change in amount of water intake after influenza infection [1] | blood glucose level [2] | blood β-hydroxybutyric acid level [2] | body weight change after influenza infection [3] | survival rate maintained until Day 11 ([4]; KIS7 2.8 mg/kg/day) [%] | survival rate as of Day 14 [4, 6] [%] | blood ATP level ([2]; KIS7 2.8 mg/kg/day i.p.) | blood lactic acid level ([2]; KIS7 2.8 mg/kg/day i.p.) | ATP level in heart [5] | ATP level in liver [5] | day on which death occurred ([4]; KIS24 1.3 mg/kg) [days] | survival rate maintained until Day 10 ([4]; KIS37 1.6 mg/kg) [%] |
| --- | --- | --- | --- | --- | --- | --- | --- | --- | --- | --- | --- | --- | --- |
| O=C(O)C(Cl)Cl [DCA, dichloroacetic acid, reference compound] | started to drastically decrease on Day 6 | clearly and markedly decreased on Day 7 | hardly showed any improvement | hardly showed any improvement | could hardly suppress body weight loss |  |  |  |  |  |  |  |  |
| Cc1cc2c(C(C)C)c(O)c(O)c(C=O)c2c(O)c1-c1c(C)cc2c(C(C)C)c(O)c(O)c(C=O)c2c1O [KIS7, gossypol] | a decrease in the amount of food intake was suppressed | a decrease in the amount of water intake was suppressed | equivalent values to non-infected mice | equivalent values to non-infected mice | body weight loss was not observed at all | 100 | 70 | equivalent values to non-infected mice | equivalent values to non-infected mice | equivalent ATP levels to non-infected mice | equivalent ATP levels to non-infected mice |  |  |
| CC1(C)CCC2=C(O1)c1ccccc1C(=O)C2=O [KIS24, β-lapachone] |  |  |  |  |  |  | 90 |  |  |  |  | 6 |  |
| C[C@H]1COC2=C1C(=O)C(=O)c1c2ccc2c1CCCC2(C)C [KIS37, cryptotanshinone] |  |  |  |  |  |  | 80 |  |  |  |  |  | 100 |

Source: patent US20150335610A1, “PDK4 INHIBITOR AND USE THEREOF” (priority 2012, published 2015)
